The text below walks through data of the supplement of paper PMC4604168 (melanoma cell lines).

The other results are listed elsewhere or left out. Many values rest on one well or one pass, so single values are uncertain.
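Note: cells treated in 1,536-well plates, then fixed and DAPI-stained, with nuclei counted from automated high-throughput microscope images.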

For the assay, the system named is LOXIMVI. Kind of assay: cell count relative to DMSO control; melanoma cells; higher = more viable cells. The note with it: library dose: standard library concentration; 72 h.
In the case of `Cc1cc(Nc2cc(N3CCN(C)CC3)nc(Sc3ccc(NC(=O)C4CC4)cc3)n2)n[nH]1` [Tozasertib] + CC(=O)O[C@@]12CO[C@@H]1C[C@H](O)[C@@]1(C)C(=O)[C@H](O)C3=C(C)[C@@H](OC(=O)[C@H](O)[C@@H](NC(=O)OC(C)(C)C)c4ccccc4)C[C@@](O)([C@@H](OC(=O)c4ccccc4)[C@H]21)C3(C)C [Docetaxel] (first compound 0.03 µM, partner dose 0.0005 µM), the cell count was 48.8%. The compound `CC[C@]1(O)C[C@H]2CN(CCc3c([nH]c4ccccc34)[C@@](C(=O)OC)(c3cc4c(cc3OC)N(C=O)[C@H]3[C@@](O)(C(=O)OC)[C@H](OC(C)=O)[C@]5(CC)C=CCN6CC[C@]43[C@@H]65)C2)C1` [vincristine] + Oc1nc(-c2ccc(C(F)(F)F)cc2)nc2c1CSCC2 [XAV939] (first compound 0.0005 µM, partner dose 10 µM) gave a cell count of 88.1%. The value for `CC[C@]1(O)C[C@H]2CN(CCc3c([nH]c4ccccc34)[C@@](C(=O)OC)(c3cc4c(cc3OC)N(C=O)[C@H]3[C@@](O)(C(=O)OC)[C@H](OC(C)=O)[C@]5(CC)C=CCN6CC[C@]43[C@@H]65)C2)C1` [vincristine] + c1cc(-c2cnn3cc(-c4ccc(OCCN5CCCCC5)cc4)cnc23)ccn1 [Dorsomorphin] (first compound 0.0005 µM, partner dose 2 µM) was 56.9%. The value for `Cc1cc(Nc2cc(N3CCN(C)CC3)nc(Sc3ccc(NC(=O)C4CC4)cc3)n2)n[nH]1` [Tozasertib] + COc1ccc(-c2ccc3c(N4CCOCC4)nc(N4C[C@@H](C)O[C@@H](C)C4)nc3n2)cc1CO [KU0063794] (first compound 0.03 µM, partner dose 0.1 µM) was 76.8%.
